Reference: the supplement of paper PMC12067093, “Discovery and optimisation of a covalent ligand for TRIM25 and its application to targeted protein ubiquitination” (Chemical Science, 2025)
The full data set covers some 21,000 targets. This sample favours those with the largest changes.

Compound: Cc1cc(ccc1-c1ccccc1)C(=O)N1CCCN(CC1)C(=O)CCl [compound 10]
Experiment: probe-labelled cysteine peptide fold change vs DMSO (competition) (log2 fold change); higher = less target engagement (more negative = stronger competition)
Details: THP-1, incubation time: 4 h
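Further: competitive profiling in live THP-1 cells: cysteine peptides tagged with an iodoacetamide desthiobiotin (IA-DTB) probe, intensity after compound treatment relative to DMSO-treated cells.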

Sequence of UniProt Q9NSY1 (Q9NSY1 whole entry, looked up): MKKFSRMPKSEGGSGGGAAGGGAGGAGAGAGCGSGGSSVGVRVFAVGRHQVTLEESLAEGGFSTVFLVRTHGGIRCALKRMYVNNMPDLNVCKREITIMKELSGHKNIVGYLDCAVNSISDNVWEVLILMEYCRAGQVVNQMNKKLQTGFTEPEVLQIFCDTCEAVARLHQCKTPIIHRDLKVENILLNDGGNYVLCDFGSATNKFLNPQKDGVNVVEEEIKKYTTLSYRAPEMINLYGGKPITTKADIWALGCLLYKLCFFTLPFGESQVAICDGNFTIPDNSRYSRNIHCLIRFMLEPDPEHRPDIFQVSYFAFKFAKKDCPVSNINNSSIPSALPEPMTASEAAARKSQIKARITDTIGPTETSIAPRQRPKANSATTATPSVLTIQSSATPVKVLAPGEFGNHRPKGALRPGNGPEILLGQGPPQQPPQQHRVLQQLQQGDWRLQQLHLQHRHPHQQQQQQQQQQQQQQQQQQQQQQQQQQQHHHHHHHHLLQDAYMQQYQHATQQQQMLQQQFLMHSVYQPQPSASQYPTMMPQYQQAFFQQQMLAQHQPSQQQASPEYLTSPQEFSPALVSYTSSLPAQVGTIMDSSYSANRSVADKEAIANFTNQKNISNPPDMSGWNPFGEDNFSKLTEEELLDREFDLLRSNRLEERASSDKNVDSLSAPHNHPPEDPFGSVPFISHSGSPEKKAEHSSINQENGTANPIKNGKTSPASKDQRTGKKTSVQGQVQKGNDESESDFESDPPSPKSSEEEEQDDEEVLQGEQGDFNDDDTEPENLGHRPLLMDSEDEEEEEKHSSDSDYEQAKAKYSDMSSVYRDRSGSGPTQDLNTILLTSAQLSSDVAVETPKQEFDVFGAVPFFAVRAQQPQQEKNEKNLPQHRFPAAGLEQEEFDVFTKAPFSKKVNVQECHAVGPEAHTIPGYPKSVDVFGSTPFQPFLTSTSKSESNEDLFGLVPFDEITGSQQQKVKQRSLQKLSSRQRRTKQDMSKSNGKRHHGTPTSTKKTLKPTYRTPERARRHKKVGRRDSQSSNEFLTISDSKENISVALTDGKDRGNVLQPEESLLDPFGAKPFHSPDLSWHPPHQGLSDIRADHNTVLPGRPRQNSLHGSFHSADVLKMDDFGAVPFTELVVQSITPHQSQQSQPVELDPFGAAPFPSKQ
Sequence of UniProt Q14790 (Q14790 whole entry, looked up): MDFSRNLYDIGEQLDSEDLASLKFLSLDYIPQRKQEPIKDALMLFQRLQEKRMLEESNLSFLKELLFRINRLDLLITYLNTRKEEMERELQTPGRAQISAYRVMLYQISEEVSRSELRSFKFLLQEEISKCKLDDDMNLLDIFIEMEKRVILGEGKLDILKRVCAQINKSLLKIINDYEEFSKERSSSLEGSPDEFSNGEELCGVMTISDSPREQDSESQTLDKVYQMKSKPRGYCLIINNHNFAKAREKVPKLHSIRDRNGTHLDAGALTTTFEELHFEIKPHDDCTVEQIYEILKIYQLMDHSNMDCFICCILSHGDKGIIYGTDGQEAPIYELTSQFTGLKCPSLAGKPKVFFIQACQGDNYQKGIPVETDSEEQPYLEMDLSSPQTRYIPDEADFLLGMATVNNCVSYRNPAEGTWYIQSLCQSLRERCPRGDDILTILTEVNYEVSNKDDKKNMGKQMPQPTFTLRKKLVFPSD
Sequence of UniProt O14981 (O14981 whole entry, looked up): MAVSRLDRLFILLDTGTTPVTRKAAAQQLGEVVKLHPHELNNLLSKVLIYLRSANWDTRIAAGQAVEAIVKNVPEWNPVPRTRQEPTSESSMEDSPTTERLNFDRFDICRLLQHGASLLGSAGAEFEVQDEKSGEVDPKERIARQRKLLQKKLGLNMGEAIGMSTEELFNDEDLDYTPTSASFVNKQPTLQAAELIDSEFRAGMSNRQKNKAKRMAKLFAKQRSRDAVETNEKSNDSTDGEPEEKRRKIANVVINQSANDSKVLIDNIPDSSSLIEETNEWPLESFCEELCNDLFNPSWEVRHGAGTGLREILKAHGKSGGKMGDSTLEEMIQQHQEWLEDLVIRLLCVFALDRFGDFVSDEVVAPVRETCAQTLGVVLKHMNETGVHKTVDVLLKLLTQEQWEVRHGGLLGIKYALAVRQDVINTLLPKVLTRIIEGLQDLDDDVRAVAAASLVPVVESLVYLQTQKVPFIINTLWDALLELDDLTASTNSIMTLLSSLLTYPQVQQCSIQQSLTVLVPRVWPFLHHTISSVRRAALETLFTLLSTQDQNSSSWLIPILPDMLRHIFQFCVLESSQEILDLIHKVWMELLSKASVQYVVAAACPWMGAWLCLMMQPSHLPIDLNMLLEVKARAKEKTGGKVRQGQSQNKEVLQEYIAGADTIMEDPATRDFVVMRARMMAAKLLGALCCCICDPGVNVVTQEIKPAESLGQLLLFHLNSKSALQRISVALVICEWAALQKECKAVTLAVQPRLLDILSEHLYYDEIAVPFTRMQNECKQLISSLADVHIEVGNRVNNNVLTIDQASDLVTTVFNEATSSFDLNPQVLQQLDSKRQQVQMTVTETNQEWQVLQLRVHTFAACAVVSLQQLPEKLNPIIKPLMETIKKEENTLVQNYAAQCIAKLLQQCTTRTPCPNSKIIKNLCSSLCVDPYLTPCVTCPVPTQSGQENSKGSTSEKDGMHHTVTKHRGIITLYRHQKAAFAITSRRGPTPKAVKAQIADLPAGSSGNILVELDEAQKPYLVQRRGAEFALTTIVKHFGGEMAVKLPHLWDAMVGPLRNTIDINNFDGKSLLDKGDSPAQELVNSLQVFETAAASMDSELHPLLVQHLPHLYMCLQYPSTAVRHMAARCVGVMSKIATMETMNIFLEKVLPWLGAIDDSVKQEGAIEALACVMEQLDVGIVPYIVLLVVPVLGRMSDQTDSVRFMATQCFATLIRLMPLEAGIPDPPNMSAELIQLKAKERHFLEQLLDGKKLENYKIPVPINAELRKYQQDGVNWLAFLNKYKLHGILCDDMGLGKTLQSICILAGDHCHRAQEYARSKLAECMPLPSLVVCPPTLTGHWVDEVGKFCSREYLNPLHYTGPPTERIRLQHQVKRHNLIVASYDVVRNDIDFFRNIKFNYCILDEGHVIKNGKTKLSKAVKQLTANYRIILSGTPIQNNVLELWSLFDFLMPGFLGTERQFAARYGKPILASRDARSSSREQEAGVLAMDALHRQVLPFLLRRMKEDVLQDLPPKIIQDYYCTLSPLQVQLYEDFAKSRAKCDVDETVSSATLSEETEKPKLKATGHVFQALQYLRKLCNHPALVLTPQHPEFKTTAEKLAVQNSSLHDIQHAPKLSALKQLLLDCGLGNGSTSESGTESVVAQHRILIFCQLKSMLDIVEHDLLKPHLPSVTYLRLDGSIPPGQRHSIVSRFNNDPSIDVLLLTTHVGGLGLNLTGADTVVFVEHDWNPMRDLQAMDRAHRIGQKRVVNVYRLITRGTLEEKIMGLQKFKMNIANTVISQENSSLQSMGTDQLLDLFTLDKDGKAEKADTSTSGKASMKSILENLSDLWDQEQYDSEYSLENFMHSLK
Sequence of UniProt Q9H078 (Q9H078 whole entry, looked up): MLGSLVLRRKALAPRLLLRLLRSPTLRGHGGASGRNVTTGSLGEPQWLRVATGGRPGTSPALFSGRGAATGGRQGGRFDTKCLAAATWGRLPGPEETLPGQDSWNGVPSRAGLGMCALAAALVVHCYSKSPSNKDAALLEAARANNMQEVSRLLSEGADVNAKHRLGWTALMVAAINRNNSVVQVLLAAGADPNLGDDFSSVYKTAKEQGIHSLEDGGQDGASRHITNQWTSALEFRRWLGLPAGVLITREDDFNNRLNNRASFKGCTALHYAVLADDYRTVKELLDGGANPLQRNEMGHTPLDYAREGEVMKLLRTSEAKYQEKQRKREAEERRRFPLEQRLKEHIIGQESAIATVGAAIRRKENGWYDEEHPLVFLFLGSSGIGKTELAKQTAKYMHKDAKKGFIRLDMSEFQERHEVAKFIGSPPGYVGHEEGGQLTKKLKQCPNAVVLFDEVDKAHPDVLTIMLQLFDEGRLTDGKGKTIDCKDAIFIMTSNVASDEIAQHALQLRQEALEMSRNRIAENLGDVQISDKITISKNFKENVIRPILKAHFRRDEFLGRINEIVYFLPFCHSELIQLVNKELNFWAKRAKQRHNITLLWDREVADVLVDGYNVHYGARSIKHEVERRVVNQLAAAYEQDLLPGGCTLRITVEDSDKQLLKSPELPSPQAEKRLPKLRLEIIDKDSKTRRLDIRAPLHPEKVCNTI
Sequence of UniProt P30307 (P30307 whole entry): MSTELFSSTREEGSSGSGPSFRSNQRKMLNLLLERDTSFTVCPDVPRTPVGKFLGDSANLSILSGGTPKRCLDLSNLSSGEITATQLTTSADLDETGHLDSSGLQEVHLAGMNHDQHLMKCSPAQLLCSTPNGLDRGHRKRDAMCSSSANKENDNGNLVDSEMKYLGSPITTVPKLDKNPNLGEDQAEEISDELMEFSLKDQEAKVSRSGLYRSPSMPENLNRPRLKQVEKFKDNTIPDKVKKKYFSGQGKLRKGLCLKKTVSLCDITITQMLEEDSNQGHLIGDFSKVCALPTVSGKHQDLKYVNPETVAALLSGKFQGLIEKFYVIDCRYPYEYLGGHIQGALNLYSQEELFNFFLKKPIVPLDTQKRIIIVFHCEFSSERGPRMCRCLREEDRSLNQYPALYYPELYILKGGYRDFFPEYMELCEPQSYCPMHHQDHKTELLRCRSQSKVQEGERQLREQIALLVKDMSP
Sequence of UniProt O96020 (O96020 whole entry): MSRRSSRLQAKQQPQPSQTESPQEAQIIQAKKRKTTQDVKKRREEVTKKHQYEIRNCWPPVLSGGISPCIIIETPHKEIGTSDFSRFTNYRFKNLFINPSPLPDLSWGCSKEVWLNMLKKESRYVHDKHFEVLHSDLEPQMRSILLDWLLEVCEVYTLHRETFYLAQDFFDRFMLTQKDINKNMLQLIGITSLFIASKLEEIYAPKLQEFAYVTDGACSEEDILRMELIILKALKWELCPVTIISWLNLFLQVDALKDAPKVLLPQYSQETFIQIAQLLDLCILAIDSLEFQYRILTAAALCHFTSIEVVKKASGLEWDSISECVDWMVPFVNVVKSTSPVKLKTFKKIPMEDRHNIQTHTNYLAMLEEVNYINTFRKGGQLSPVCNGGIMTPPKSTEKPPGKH

Row | Target | probe-labelled cysteine peptide fold change (10 µM) | probe-labelled cysteine peptide fold change (50 µM)
1 | BRPF1_P55201_413_ANCYTAFHVTCAQQAGLYMK (UniProt P55201) | -0.0225 | -0.122
2 | CLPB_Q9H078_572_INEIVYFLPFCHSELIQLVNK (UniProt Q9H078) | 0.361 | 0.035
3 | CARS_P49589_506_ALCDNVDTR (UniProt P49589) | 0.0156 | -0.0518
4 | CCT7_Q99832_158_CAMTALSSK (UniProt Q99832) | 0.0449 | -0.00995
5 | BMP2K_Q9NSY1_912_VNVQECHAVGPEAHTIPGYPK (UniProt Q9NSY1) | -0.187 | -0.223
6 | CCNE2_O96020_109_NLFINPSPLPDLSWGCSK (UniProt O96020) | -0.35 | -1.56
7 | ATXN10_Q9UBB4_165_NEDSQSIVWVHAFPELFLSCLNHPDKK (UniProt Q9UBB4) | 0.248 | 0.293
8 | CENPF_P49454_373_LTEDLSCQR (UniProt P49454) | 0.0608 | 0.272
9 | CDC25C_P30307_42_DTSFTVCPDVPR (UniProt P30307) | -0.302 | -0.456
10 | CASP8_Q14790_309+312+313_IYQLMDHSNMDCFICCILSHGDK (UniProt Q14790) | 0.0881 | -1.31
11 | BAZ1A_Q9NRL2_1195_TVPEGDWFCPECRPK (UniProt Q9NRL2) | 0.186 | 0.0112
12 | CLIC4_Q9Y696_189_KFLDGNEMTLADCNLLPK (UniProt Q9Y696) | -0.0667 | -0.583
13 | CAPZA2_P47755_111_KEATDPRPCEVENAVESWR (UniProt P47755) | -0.209 | -0.166
14 | BTAF1_O14981_1651_ILIFCQLK (UniProt O14981) | -0.0768 | 0.152
